From PubChem BioAssay AID588855 (National Center for Advancing Translational Sciences (NCATS), 2011)
In all, about 410,000 compounds went through this assay and about 5,000 (1.2%) were called active. Inconclusive results, whose numbers are uncertain, are shown with a selection of clear calls. Calls follow the shape of the dose curve; as a rule, active = well fitted inhibition curve with a large enough effect; inconclusive = small, poorly fitted or top-dose-only effect; inactive = no such curve, though single readings can be large or run the other way. Potencies of inconclusive entries are doubtful fits and often do not repeat.

experiment: qHTS for Inhibitors of TGF-b; conditions: HepG2 CAGA-GFP TGF-b/SMAD3 reporter, GFP fluorescence, 18 h, TGF-beta stimulated, 500 pg/mL final; series mostly up to 46.1 µM; also: nearly all actives have a fitted effect of over 65% in size
Summary of the method: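 Cell-based qHTS in HEPG2 carrying a CAGA-GFP Smad reporter; compounds added before 500 pg/mL final TGF-beta, 18 h incubation at 37 degrees C, GFP fluorescence quantified per cell by imaging cytometry.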
Potency is read from the fitted curve at half-maximal effect; tags tell the direction and shape of the fitted curve.

| SMILES | Potency |
| --- | --- |
| COc1ccc(C(=O)c2sc(NC(C)C)nc2N)cc1OC | inconclusive: 7.08 µM [inhibitor, partial curve, poor fit] |
| Cc1cccc(-n2ncc3c(N4CCOCC4)ncnc32)c1 | inactive |
| CCCCCCN1CCN(C2CN(Cc3ccc(F)cc3)S(=O)(=O)C2)CC1 (stereo not drawn) | inconclusive: 12.6 µM [inhibitor, partial curve] |
| COc1ccc(Cl)cc1-c1cc(C(=O)Nc2cc(OC)c(OC)c(OC)c2)[nH]n1 | inconclusive: 31.6 µM [inhibitor, single point] |
| Cc1ccc(NC(=S)NCc2ccc(Cl)cc2)c(OC(F)F)c1 | inconclusive: 11.2 µM [inhibitor, partial curve] |
| COc1ccc(C(CCNCc2ccc(OC(C)C)cc2)C(C)C)cc1 (stereo not drawn) | inconclusive: 11.2 µM [inhibitor, partial curve, poor fit] |
| NC1=NC(=O)/C(=C\c2ccc(-c3ccc(Cl)cc3)o2)S1 | inconclusive: 35.5 µM [inhibitor, single point] |
| Nc1ccc(S(=O)(=O)Nc2nc(-c3ccccc3)cc(-c3ccccc3)n2)cc1 | inconclusive: 35.5 µM [inhibitor, single point] |
| O=C1CC2(CCN(C(=O)c3ccc([N+](=O)[O-])cc3)CC2)Oc2ccccc21 | inactive |
| COC(=O)C1=C(C)N(Cc2ccccc2)C(=NCc2cc(OC)c(OC)c(OC)c2)N[C@H]1c1ccc(Br)cc1 | inconclusive: 28.2 µM [inhibitor, single point] |
| NS(=O)(=O)c1ccc(NC(=O)Nc2ccc(C(F)(F)F)cc2)cc1 | inactive |
| COc1ccc(-c2cccc3c2C2CC3CCN2C(=O)OCc2ccccc2)cc1 (stereo not drawn) | inconclusive: 35.5 µM [inhibitor, single point] |
| CCC(Sc1nnc(C)n2c1cc1occc12)C(=O)Nc1ccccc1F (stereo not drawn) | inconclusive: 35.5 µM [inhibitor, single point] |
| CCOC(=O)/C(=C/c1ccccc1)NC(=O)c1ccco1 | inactive |
| CCCC(=O)Nc1ccc(C(=O)Nc2ccc([N+](=O)[O-])cc2OC)cc1 | inactive |
| CCCCNC(=O)c1onc(CSc2nc3ccccc3[nH]2)c1C(=O)NCCCC | inconclusive: 22.4 µM [inhibitor, partial curve, poor fit] |
| COCCCNC(=S)N1CCN(C(c2ccccc2)c2ccccc2)CC1 | inactive |
| O=C(Nc1nccs1)NC(C(F)(F)F)C(F)(F)F | inconclusive: 7.08 µM [inhibitor, partial curve, poor fit] |
| Cc1cccnc1CN1CCN(C(=O)c2cc(COc3ccc4ncccc4c3)on2)CC1 | inconclusive: 12.6 µM [inhibitor, partial curve, poor fit] |
| CC1CN(CC(=O)Nc2cc(S(=O)(=O)N3CCCC3)ccc2Cl)CC(C)O1 (stereo not drawn) | inactive |
| COc1ccccc1CNS(=O)(=O)c1ccc(S(=O)(=O)NC2CC2)cc1 | inconclusive: 4.47 µM [inhibitor, full curve, poor fit] |
| N#Cc1cn(CCOc2ccccc2F)c2ccccc12 | inconclusive: 35.5 µM [inhibitor, single point] |

| SMILES | Potency |
| --- | --- |
| OC1Cc2ccccc2C1Nc1cccc(C(F)(F)F)c1 (stereo not drawn) | inconclusive: 35.5 µM [inhibitor, single point] |
| Cc1nn2c(NCCCN(C)C)c3c(nc2c1-c1ccccc1)CCCC3 | inconclusive: 35.5 µM [inhibitor, single point] |
| [2H]c1c([2H])c([2H])c(C(=O)c2sc(N3CCCCCC3)nc2-c2ccccc2)c([2H])c1[2H] | active: 14.1 µM |
| Cc1ccc(S(=O)(=O)/N=C2/NC(=O)/C(=C\c3ccccc3)S2)cc1 | inconclusive: 22.4 µM [inhibitor, single point] |
| CC(=O)N(Cc1nc2sc(C)c(C)c2c(=O)[nH]1)C1CCCC1 | inactive |
| COc1cc(OC)c2c(c1C(CCN1CCN(c3ccccc3)CC1)c1ccc(N(C)C)cc1)OC(=O)CC2c1ccc(N(C)C)cc1 (stereo not drawn) | inactive |
| Cc1ccc(Cn2nnc3c(=O)[nH]c(C4CCN(S(=O)(=O)/C=C/c5ccccc5)CC4)nc32)cc1 | inconclusive: 11.2 µM [inhibitor, partial curve, poor fit] |
| CC(C)(C)c1ccc(-c2n[nH]c(=S)n2Cc2ccccc2)cc1 | inconclusive: 12.6 µM [inhibitor, partial curve, poor fit] |
| O=C(Nc1cccc(F)c1)C1CCCN(C(=O)c2ccc(Cl)cc2)C1 (stereo not drawn) | inconclusive: 14.1 µM [inhibitor, single point] |
| CC(=O)Nc1cccc(NC(=O)Cn2cnc3c2c(=O)n(C)c(=O)n3C)c1 | inactive |
| O=C(Nc1cccc(Cl)c1)c1c(NC(=O)C(F)(F)F)sc2c1CCCC2 | inconclusive: 3.16 µM [inhibitor, partial curve, poor fit] |
| Cc1nn(-c2nc3ccccc3n2Cc2ccccc2)c2c1C(=O)CC(C)(C)C2 | inconclusive: 22.4 µM [inhibitor, single point] |
| COc1ccc2cc3c(N)nn(C(=O)Cc4c[nH]c5ccccc45)c3nc2c1 | inconclusive: 8.91 µM [inhibitor, partial curve, poor fit] |
| CCOc1ccc(C(=O)NCC(=O)N2CCc3ccccc3C2)cc1OCC | inactive |
| Cc1nc(N2CCCC2)c2c(C(=O)Nc3cccc(C)c3C)c(C)oc2n1 | inactive |
| CC1=C(C(=O)Nc2ccc(CC(=O)NCc3ccc(OC(C)C)cc3)cc2)SCCO1 | inconclusive: 0.631 µM [inhibitor, full curve] |
| CC(C)N1C/C(=C/c2ccsc2)C(=O)/C(=C/c2ccsc2)C1 | active: 7.94 µM |
| O=C1COc2ccc(C(=O)COC(=O)c3nc(Cl)ccc3Cl)cc2N1 | inactive |
| O=C(COC(=O)c1cc(Br)ccc1O)Nc1ccc2c(c1)OCO2 | inconclusive: 35.5 µM [inhibitor, single point] |
| O=C(COC(=O)c1nc(Cl)ccc1Cl)c1ccc[nH]1 | inactive |
| COc1ccccc1N1CCN(C(=O)Cn2ncc3c(=O)oc4ccccc4c32)CC1 | inconclusive: 15.8 µM [inhibitor, single point] |
